{"source": "PubChem BioAssay AID1963576", "about": "(National Center for Advancing Translational Sciences (NCATS), 2024)", "note": "Among all 46,000 compounds or so, about 60 (0.1%) were called active. Roughly 3% stayed inconclusive and do not appear here. The call rests on the fitted dose curve; in most records, active means well fitted inhibition curve with a large enough effect; inconclusive means small, poorly fitted or top-dose-only effect; inactive means no such curve, though single readings can be large or run the other way. Some of the results follow."}
{"assay": "Primary qHTS assay for Inhibitors of ovarian cancer metastasis using an organotypic tumor microenvironment (TME) model; further: nearly all actives have a fitted effect of over 65% in size;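 on activity change, negative = inhibition: plate controls were DMSO wells for no effect and tomatine positive control wells for full effect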.", "details": "SKOV3ip1-GFP adhesion/invasion on 3D omental model, fluorescence; series mostly up to 45.8 µM; activity change, negative = inhibition: at the top concentration", "in_short": "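A 3D layer of primary human omental fibroblasts, mesothelial cells, fibronectin and collagen I, grown 48 hr, received SKOV3ip1-GFP cells in serum-free medium plus compounds at 0.36-46 umol/L. After 2 hr RT and 16 hr 37 C, fixed adherent GFP cells were counted; normalized to DMSO and tomatine.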"}
{"smiles": "Cc1ccccc1NS(=O)(=O)c1ccc2[nH]cc(C(=O)NCCc3ccccc3)c(=O)c2c1", "outcome": "inactive"}
{"smiles": "COC(=O)c1c(-c2ccc(Cl)cc2)noc1N1CCN(c2ccc(C(C)=O)cc2)CC1", "activity change, negative = inhibition": "inactive: -2.92%"}
{"smiles": "CCCNC(=O)CCc1c(C)nc2nc(CNC(=O)c3ccccc3)nn2c1C", "activity change, negative = inhibition": "inactive: -3.38%"}
{"smiles": "CCOC(=O)c1ccc(NC(=O)CS(=O)(=O)Cc2nc(-c3ccc(C)cc3)oc2C)cc1", "outcome": "inactive"}
{"smiles": "CCCCc1ccc(NC(=O)CSc2nc3ccccc3nc2N2CCCCC2)cc1", "activity change, negative = inhibition": "inactive: 4.88%"}
{"smiles": "COc1ccc(NC(=O)c2oc3ccccc3c2NC(=O)c2cc3ccccc3o2)c(OC)c1", "activity change, negative = inhibition": "inactive: -11.3%"}
{"smiles": "Cc1ccc(NC(=O)CN2C(=O)CC(c3ccco3)Sc3ccccc32)cc1Cl", "note": "(stereo not drawn)", "outcome": "inactive"}
{"smiles": "CCOc1ccc(NC(=O)C(CC)n2nc(C)c3c(C)n(-c4ccccc4)nc3c2=O)cc1", "note": "(stereo not drawn)", "activity change, negative = inhibition": "inactive: 16.8%"}
{"smiles": "Cc1ccc(F)cc1NC(=O)CSc1nc(-c2cccs2)cc(C(F)(F)F)n1", "activity change, negative = inhibition": "inactive: -0.707%"}
{"smiles": "COC(=O)c1ccccc1NC(=O)CCCn1nc(C)c2c(C)n(-c3ccccc3)nc2c1=O", "activity change, negative = inhibition": "inactive: 5.35%"}
{"smiles": "CCOc1ccccc1CNC(=O)c1ccc(-n2c(C)cc3c2CCC(C)C3)cc1", "note": "(stereo not drawn)", "activity change, negative = inhibition": "inactive: -3.64%"}
{"smiles": "CCn1c2ccccc2c2cc(CN3CCN(Cc4cccc(Cl)c4)CC3)ccc21", "activity change, negative = inhibition": "inactive: -41%"}
{"smiles": "COc1cccc(NC(=O)CCNC(=O)Cn2cnc3ccccc3c2=O)c1", "activity change, negative = inhibition": "inactive: 8.13%"}
{"smiles": "COc1cc(C(CC(=O)NCc2ccccc2Cl)N2Cc3ccccc3C2=O)cc(OC)c1OC", "note": "(stereo not drawn)", "activity change, negative = inhibition": "inactive: -11.9%"}
{"smiles": "COc1cc(OC)cc(-n2c(=O)c3sccc3n(Cc3ccc(F)cc3)c2=O)c1", "outcome": "inactive"}
{"smiles": "Cc1ccc(-c2onc(C)c2C)cc1S(=O)(=O)N1CCN(c2ccccc2F)CC1", "activity change, negative = inhibition": "inactive: -4%"}
{"smiles": "COc1cc(OC)c(NC(=O)Nc2ccc3c(c2)N(C)C(=O)c2ccccc2S3)cc1Cl", "activity change, negative = inhibition": "inactive: 12.4%"}
{"smiles": "Cc1ccc(NC(=O)C(=O)NCC(c2cccnc2)N2CCN(Cc3ccccc3)CC2)cc1Cl", "note": "(stereo not drawn)", "activity change, negative = inhibition": "inactive: 8.78%"}
{"smiles": "CCCOc1ccc(Oc2nc(NC)nc(N3CCOCC3)n2)nn1", "activity change, negative = inhibition": "inactive: -3.44%"}
{"smiles": "COC(=O)c1sc(N2C(=O)c3oc4ccc(C)cc4c(=O)c3C2c2ccc(OC)cc2)nc1C", "note": "(stereo not drawn)", "activity change, negative = inhibition": "inactive: -0.643%"}
{"smiles": "Cc1cc(Cl)ccc1NC(=O)CSc1nc2c(c(=O)[nH]1)CCC2", "activity change, negative = inhibition": "inactive: 7.47%"}
{"smiles": "Cc1ccc(CNC(=O)c2cc(-c3ccc(C)c(C)c3)nc3ccccc23)cc1", "activity change, negative = inhibition": "inactive: -0.159%"}
{"smiles": "Cc1ccc(Cl)cc1N1CCN(c2nc3ccccc3c3nc(-c4cccnc4)nn23)CC1", "activity change, negative = inhibition": "inactive: -6.45%"}
{"smiles": "COc1ccc(CCNC(=O)CN2C(=O)COc3ccc(S(=O)(=O)N4CCCC4)cc32)cc1OC", "outcome": "inactive"}
{"smiles": "Cc1ccc(C(=O)O)cc1NC(=O)c1nsc2ccccc12", "activity change, negative = inhibition": "inactive: -8.93%"}
{"smiles": "COc1ccc(NC(=O)CSc2nc(-c3cc(OC)c(OC)c(OC)c3)[nH]c2-c2ccc(F)cc2)cc1", "activity change, negative = inhibition": "inactive: -1.72%"}
{"smiles": "Cc1ccc(Nc2cc(C(=O)NCCc3ccccc3)c3ccccc3n2)c(C)c1", "activity change, negative = inhibition": "inactive: -1.44%"}
{"smiles": "COc1cc(NC(=O)CN2CCN(S(=O)(=O)c3ccc(Br)cc3)CC2)cc(OC)c1", "activity change, negative = inhibition": "inactive: -3.29%"}
{"smiles": "COc1ccc(CNS(=O)(=O)c2cc3c(cc2Cl)N(C(C)=O)CCO3)cc1", "activity change, negative = inhibition": "inactive: -0.403%"}
{"smiles": "O=C(CSc1nc(-c2ccccc2)cn1-c1ccccc1F)Nc1ccc(F)cc1", "activity change, negative = inhibition": "inactive: -8.36%"}
{"smiles": "CC1CCN(C(c2ccccc2)c2sc3nc(-c4ccco4)nn3c2O)CC1", "note": "(stereo not drawn)", "activity change, negative = inhibition": "inactive: -11.1%"}
{"smiles": "O=C(Nc1cccc(F)c1)C1CCCN(S(=O)(=O)c2cccc3cccnc23)C1", "note": "(stereo not drawn)", "activity change, negative = inhibition": "inactive: -0.532%"}
{"smiles": "Cc1nc2ccc(S(=O)(=O)N(C)CC(=O)Nc3ccc(C(C)C)cc3)cc2s1", "activity change, negative = inhibition": "inactive: -7.77%"}
{"smiles": "Cc1ccccc1Cn1c(COc2ccc(Cl)cc2)nc2ccccc21", "activity change, negative = inhibition": "inactive: 4.46%"}
{"smiles": "COc1ccc(CNC(=O)C2CCN(c3nnc(-n4c(C)ccc4C)s3)CC2)c(OC)c1", "activity change, negative = inhibition": "inactive: -9.32%"}
{"smiles": "CCCOC(=O)c1cccc(NC(=O)c2c(-c3ccccc3Cl)noc2C)c1", "activity change, negative = inhibition": "inactive: -0.638%"}
{"smiles": "O=C(Cn1nc(-c2ccc(Cl)cc2)c2ccccc2c1=O)Nc1cccc(Br)c1", "activity change, negative = inhibition": "inactive: -0.194%"}
{"smiles": "O=c1c2cc3c(cc2nc2sc(Nc4ccccc4)nn12)OCO3", "activity change, negative = inhibition": "inactive: -5.02%"}
{"smiles": "COc1ccc(NC(=O)CN2CCN(CC(=O)Nc3ccccc3F)CC2)c(OC)c1", "activity change, negative = inhibition": "inactive: 10.7%"}
{"smiles": "Cc1ccc(-n2ncc(C(=O)NCCN3CCc4ccccc4C3)c2C2CCN(C(=O)OC(C)(C)C)CC2)cc1C", "activity change, negative = inhibition": "inactive: -27.7%"}
{"smiles": "CC1CCN(S(=O)(=O)c2ccc3c(c2)c(=O)c(C(=O)N2CCN(c4cccc(Cl)c4)CC2)cn3C)CC1", "activity change, negative = inhibition": "inactive: 6.18%"}
{"smiles": "COc1ccc(N2CCN(c3ncnc4c3cnn4-c3ccc(F)cc3)CC2)cc1", "activity change, negative = inhibition": "inactive: 25.1%"}
{"smiles": "CCN(c1ccccc1)S(=O)(=O)c1c(C)nc2scc(C)n2c1=O", "outcome": "inactive"}
{"smiles": "COc1ccc(S(=O)(=O)c2c(Nc3cccc(C)c3C)sc(C(=O)c3ccccc3)c2N)cc1", "activity change, negative = inhibition": "inactive: -34.8%"}
{"smiles": "COc1ccc(-c2nc(SCC(=O)NC(C)CCc3ccccc3)n[nH]2)cc1", "note": "(stereo not drawn)", "outcome": "inactive"}
{"smiles": "CCOCCc1nn2c(=O)cc(COC(=O)c3ccc(NC(=O)C4CCCCC4)cc3)nc2s1", "activity change, negative = inhibition": "inactive: -5.51%"}
{"smiles": "CCN(c1ccccc1)S(=O)(=O)c1nnc(NC(=O)c2ccccc2OC)s1", "outcome": "inactive"}
{"smiles": "COc1ccc(NC(=O)C2=CC(c3ccco3)=NS(=O)(=O)N2C)cc1OC", "activity change, negative = inhibition": "inactive: 0.827%"}
